This note sets out measurements from PubChem BioAssay AID360 (National Center for Advancing Translational Sciences (NCATS), 2006).

The whole screen tested about 48,000 compounds, of which about 550 (1.1%) were called active. Not shown: some 4% with an inconclusive outcome. Cut-off read from the data, not from the text of the source: active = potency below about 15 µM; inconclusive = mostly about 16 µM to 33 µM; inactive = weaker than that. This is one part of the list.
Potency is the fitted concentration of half-maximal effect.

UniProt P04062, sequence (P04062 whole entry, looked up): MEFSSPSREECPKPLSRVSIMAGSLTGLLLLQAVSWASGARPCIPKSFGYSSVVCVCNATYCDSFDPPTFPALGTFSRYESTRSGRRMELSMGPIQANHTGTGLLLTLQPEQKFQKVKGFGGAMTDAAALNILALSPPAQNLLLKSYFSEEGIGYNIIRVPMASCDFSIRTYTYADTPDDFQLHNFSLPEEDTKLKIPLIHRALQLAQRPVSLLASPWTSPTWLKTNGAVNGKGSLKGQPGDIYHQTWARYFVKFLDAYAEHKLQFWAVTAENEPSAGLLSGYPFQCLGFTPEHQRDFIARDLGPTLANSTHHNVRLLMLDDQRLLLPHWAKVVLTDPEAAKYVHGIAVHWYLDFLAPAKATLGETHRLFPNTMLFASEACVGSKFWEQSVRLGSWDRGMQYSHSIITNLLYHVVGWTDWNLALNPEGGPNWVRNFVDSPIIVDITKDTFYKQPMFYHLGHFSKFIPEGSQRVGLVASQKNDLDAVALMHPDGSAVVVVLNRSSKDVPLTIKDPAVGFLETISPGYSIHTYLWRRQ

This test concerns the target Lysosomal acid glucosylceramidase (Homo sapiens) (UniProt P04062). Nature of the test: Glucocerebrosidase.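 Note: the screen sought inhibitors.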 Conditions: purified enzyme, resorufin glucoside fluorescence (screen aimed at inhibitors), 20 min; series mostly up to 77 µM. The procedure, abridged:
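Wild-type enzyme at 0.2 nM final in 50mM citric acid/KH2PO4, 10mM sodium taurocholate, 0.01% tween-20, pH 5.9, with resorufin beta-D-glucopyranoside at 30 uM final. Compounds titrated, 20 min at RT, red fluorescence read; AC50 from titration.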
`CCC1(C)COC2(OC1)C(=O)Nc1ccccc12` (configuration not stated): the Potency is inactive: > 76.9 µM.

`CC(=O)Nc1ccc(OC(=O)c2cccnc2)cc1`: the Potency was inactive: > 76.9 µM.

On to `COCCNC(=O)Cn1c(=O)n(Cc2ccc(C(=O)NCc3ccco3)cc2)c(=O)c2ccccc21`, for which the Potency was inactive: > 76.9 µM.

Consider `Clc1ccccc1OCc1nn2c(-c3ccncc3)nnc2s1`, for which the Potency was inactive: > 76.9 µM.

`CCOc1ccc(NS(=O)(=O)c2ccc3[nH]cc(C(=O)NC(C)CC)c(=O)c3c2)cc1` (configuration not stated): the Potency entry is “inactive”.

`CS(=O)(=O)N1CCN(C(=O)c2cccnc2)CC1`: the Potency is inactive: > 76.9 µM. As to `O=C(NC1(C(=O)NC2CCCCC2)CCCCC1)c1ccc2c(c1)OCO2`, the Potency was inactive: > 76.9 µM.

With `O=S(=O)(c1ccc2nc(Cc3cccc(C(F)(F)F)c3)[nH]c2c1)N1CCOCC1`, the Potency is inactive: > 76.9 µM. Turning to `COCCCNC(=O)CN(Cc1ccc(Cl)cc1)S(C)(=O)=O`, the Potency was inactive: > 76.9 µM. As for `CC1CC(=O)Nc2ccccc2S1(=O)=O` (configuration not stated), the figure is inactive: > 76.9 µM. On to `CC(OC(=O)CCCN1C(=O)c2ccccc2C1=O)C(=O)Nc1ncc(Cl)cc1Cl` (configuration not stated), for which the Potency was inactive: > 76.9 µM. As for `CCOC(=O)c1ccc(COC(=O)c2nonc2N)cc1`, the figure is inactive: > 76.9 µM. The value for `O=C(O)C1=C(C(=O)Nc2ccc(F)c(Cl)c2)CCCC1` was inactive: > 76.9 µM; that for `CCCOC(=O)NC(CC)COC(=O)Nc1cccc(C)c1C` (configuration not stated) was inactive: > 76.9 µM. Turning to `CCCC12CN3CC(C)(CN(C1)C31CCCCC1)C2=O`, the Potency is inactive: > 76.9 µM. As for `CCN(CC)CC(C)CNC(=O)CC(C(=O)N1CCc2ccccc21)n1ccnc1` (configuration not stated), the figure is inactive: > 76.9 µM; as for `Cc1cc2c(C)cc(=O)oc2c2c1NCCC2`, inactive: > 76.9 µM; as for `CCOc1cc(C)c(Cl)cc1S(=O)(=O)NCc1ccc2c(c1)OCO2`, inactive: > 76.9 µM. In the case of `COc1ccc(N2CC(C(=O)NCc3ccccc3)CC2=O)cc1` (configuration not stated), the Potency is inactive: > 76.9 µM. `CCCC1Cc2nc(N3CCCCC3)c(C#N)cc2CO1` (configuration not stated): the Potency is inactive: > 76.9 µM. The value for `C=C(C)c1cccc(C(C)(C)NC(=O)NCCCN2CCCC2=O)c1` was inactive: > 76.9 µM; that for `CC1CN(C(=O)N[C@@H](Cc2ccccc2)C(=O)O)CC(C)O1` (some centres not stated) was inactive: > 76.9 µM; that for `COC(=O)c1ccc(Cl)c(NC(=O)CSc2ncn[nH]2)c1` was inactive: > 76.9 µM.

Consider `O=C(NCCN1CCCC1)c1ccc2c(=O)n(CCc3ccccc3)c(=O)[nH]c2c1`, for which the Potency was inactive: > 76.9 µM.

Take `CCC(C)Sc1nc2c(c(=O)[nH]c(=O)n2C)n1CC(O)COc1cccc2ccccc12` (configuration not stated): the Potency is inactive: > 76.9 µM.

On to `CCCN(CCC)c1nc(NC2CCN(C(=O)OCC)CC2)nc(OC)n1`, for which the Potency was inactive: > 76.9 µM. `Cc1cc2cc(CN(Cc3ccc4c(c3)OCO4)C(=O)c3ccco3)c(=O)[nH]c2cc1C`: the Potency was inactive: > 76.9 µM. In the case of `COc1ccc(NC(=O)CSc2nnc(CNc3ccc(F)cc3)o2)c(OC)c1`, the Potency is inactive: > 76.9 µM.

In the case of `COCCNS(=O)(=O)c1cc(F)ccc1OC`, the Potency is inactive: > 76.9 µM. Turning to `O=C1C2C3C=CC(O3)C2C(=O)N1CC(O)c1ccccc1` (configuration not stated), the Potency was inactive: > 76.9 µM.

Turning to `CCOC(=O)c1sc2nc(N3CCOCC3)c3c(c2c1N)CCCC3`, the Potency was inactive: > 76.9 µM. As for `CC1=C(C(=O)Nc2ccccc2C)C(c2cccnc2)n2nc(CCCO)nc2N1` (configuration not stated), the figure is inactive: > 76.9 µM.

As for `O=C(CSc1nnc(-c2ccccc2Br)o1)Nc1cccc2ccccc12`, the Potency was inactive: > 76.9 µM. `Clc1ccccc1-c1nnc2sc(-c3ccccn3)nn12`: the Potency is inactive: > 76.9 µM. The value for `CC(=O)c1sc(NC(=O)c2ccc(Cn3cc(Br)cn3)o2)nc1C` was inactive: > 76.9 µM; that for `COc1ccc(C)cc1-n1nnnc1SCC(=O)Nc1cc(C)on1` was inactive: > 76.9 µM; that for `COc1ccc(CCn2c(C)cc(C(=O)CSc3nnnn3-c3ccccc3)c2C)cc1OC` was inactive: > 76.9 µM. On to `CSc1nc(N2CCOCC2)c2ccccc2n1`, for which the Potency was inactive: > 76.9 µM. `O=C(CSc1nc2ccccc2c(=O)n1Cc1ccc(C(=O)NC2CC2)cc1)NCc1ccco1`: the Potency was inactive: > 76.9 µM.

As for `CS(=O)(=O)CCC(C(=O)N1CCOCC1)N1C(=O)c2cc(Cl)c(Cl)cc2C1=O` (configuration not stated), the Potency is inactive: > 76.9 µM. Regarding `CCn1cc(C(=O)N2CCN(Cc3ccc4c(c3)OCO4)CC2)c2cc(OC)c(OC)cc2c1=O`, the Potency is inactive: > 76.9 µM.

On to `COC(=O)CN1C(=O)C(C)(C)Oc2ccc(C(=O)NC3CC3)cc21`, for which the Potency is inactive: > 76.9 µM. As for `CC(=O)c1c(C)[nH]c(C(=O)OC2CCCCC2=O)c1C` (configuration not stated), the Potency was inactive: > 76.9 µM. As for `CCN(CC)CCNC(=O)C(C(=O)c1ccccc1)n1ccccc1=O` (configuration not stated), the figure is inactive: > 76.9 µM; as for `Cn1nnnc1SCC(=O)Nc1nc(-c2ccccc2)c(-c2ccccc2)o1`, inactive: > 76.9 µM. In the case of `Cc1ccc2c(c1)N(CCC(=O)NCC1COc3ccccc3O1)C(=O)CO2` (configuration not stated), the Potency was inactive: > 76.9 µM.

In the case of `N#CCCn1c(Cl)nc2ccccc21`, the Potency is inactive: > 76.9 µM. For the molecule `O=C(O)C1C2C=CC(C2)C1C(=O)NCCc1ccncc1` (configuration not stated), the Potency is inactive: > 76.9 µM. As for `COCCn1c(=NC(=O)CSC(C)=O)sc2cc(F)ccc21`, the figure is inactive: > 76.9 µM; as for `O=C(NCCN1CCN(c2cccc(Cl)c2)CC1)c1cccn2c(=O)c3ccccc3nc12`, inactive: > 76.9 µM; as for `COc1ccc(NS(=O)(=O)c2c(C)[nH]c(=O)[nH]c2=O)c(OC)c1`, inactive: > 76.9 µM. On to `Cc1cccc(CCNS(=O)(=O)c2cnc[nH]2)c1`, for which the Potency is inactive: > 76.9 µM. For `COc1cc(C2C(C#N)=C(C)NC3=C2C(=O)c2ccccc23)cc(OC)c1OC` (configuration not stated), the Potency is inactive: > 76.9 µM.

Turning to `COc1ccccc1C(=O)N1CCCC(c2nc(-c3cc(OC)c(OC)c(OC)c3)no2)C1` (configuration not stated), the Potency was inactive: > 76.9 µM. As for `COC(=O)c1cc(OC)c(OC)cc1NC(=O)CN1CCCCC1`, the figure is inactive: > 76.9 µM; as for `CCOC(=O)C1CCN(C(c2cc3ccc(C)c(C)c3[nH]c2=O)c2nnnn2C2CCCCC2)CC1` (configuration not stated), inactive: > 76.9 µM.

With `Cc1ccc2c(CC(=O)O)coc2c1C`, the Potency was inactive: > 76.9 µM.
